Data reported in the supplement of paper PMC12217912.
The list shows a part of the results. The full chains were built here from the parent and the listed change. Values near 0.05 are background.

B1: TEV protease; numbered along this chain (parent)
chain: MGESLFKGPRDYNPISSSICHLTNESDGHTTSLYGIGFGPFIITNKHLFRRNNGTLVVQSLHGVFKVKDTTTLQQHLVDGRDMIIIRMPKDFPPFPQKLKFREPQREERICLVTTNFQTKSMSSMVSDTSCTFPSGDGIFWKHWIQTKDGQCGSPLVSTRDGFIVGIHSASNFTNTNNYFTSVPKNFMELLTNQEAQQWVSGWRLNADSVLWGGHKVFMVKPEEPFQPVKEATQL

Variants of: B1
Experiment: raw area under fraction-flipped curve 0-4 h after induction (AUC4h, not background-subtracted), DNA-recorder readout of cleavage of the substrate (dimensionless); higher = more cleavage of the substrate by the protease variant
Details: temperature: 34 °C; time window: 0-4 h after rhamnose induction
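Also: Bxb1 expression induced with 0.2% (w/v) L-rhamnose at OD600 near 0.5, cultures sampled hourly, flipped fraction per protease–substrate barcode pair counted by paired-end Illumina sequencing.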

Row | Variant | area with substrate ENLYDQS | area with substrate ENLYEQS | area with substrate ENLYGQS | area with substrate ENLYKQS | area with substrate ENLYLQS | area with substrate ENLYMQS | area with substrate ENLYNQS | area with substrate ENLYPQS | area with substrate ENLYQQS | area with substrate ENLYRQS | area with substrate ENLYSQS | area with substrate ENLYTQS | area with substrate ENLYWQS | area with substrate ENLYHQS | area with substrate ENLYVQS | area with substrate ENLYYQS | area with substrate ENLYIQS
1 | H168E | 0.052 | 0.0564 | 0.0491 | 0.0571 | 0.0559 | 0.0485 | 0.0541 | 0.0697 | 0.0491 | 0.0648 | 0.0584 | 0.0582 | 0.0497 |  |  |  | 
2 | I43K | 0.0642 | 0.0454 | 0.0491 | 0.033 |  | 0.052 | 0.0479 | 0.0423 | 0.0791 | 0.0561 |  | 0.0542 |  | 0.0426 | 0.0424 | 0.0417 | 
3 | T72N | 0.0875 | 0.0774 | 0.0618 | 0.0398 |  | 0.0808 |  | 0.0532 | 0.0596 | 0.0465 | 0.0534 | 0.0812 | 0.0663 | 0.0622 | 0.127 | 0.0669 | 0.143
4 | E224S | 0.0673 | 0.0636 | 0.0696 | 0.0655 | 0.0973 | 0.0846 |  | 0.0576 | 0.0729 |  | 0.073 | 0.081 | 0.0847 | 0.0662 | 0.112 | 0.0535 | 0.117
5 | S32W | 0.0739 | 0.0657 | 0.0723 | 0.0711 | 0.1 | 0.0957 | 0.0679 | 0.0748 | 0.0579 | 0.0359 | 0.0659 |  | 0.101 | 0.0623 | 0.127 | 0.0747 | 0.14
6 | N24Y | 0.0559 | 0.0489 | 0.0786 | 0.0578 |  | 0.0692 | 0.0659 | 0.0791 | 0.0594 | 0.0517 |  | 0.0629 | 0.071 | 0.071 |  | 0.0626 | 
7 | H168L | 0.0583 | 0.0641 | 0.0636 | 0.0491 | 0.0366 | 0.0618 | 0.0764 |  |  |  | 0.0654 | 0.0259 |  | 0.0585 | 0.0671 | 0.0572 | 0.0642
8 | A232G | 0.0659 | 0.0672 |  |  |  |  | 0.0681 | 0.0823 |  | 0.0497 | 0.0749 |  | 0.0773 | 0.0791 |  |  | 
9 | S32L | 0.0464 | 0.0594 |  |  |  | 0.0865 | 0.0764 | 0.0651 | 0.0648 | 0.0387 |  | 0.0695 | 0.0852 | 0.0704 |  |  | 0.118
10 | G80K | 0.0492 | 0.0628 | 0.0584 |  |  | 0.0664 | 0.0721 | 0.0756 | 0.0698 |  |  | 0.0769 | 0.0681 | 0.0696 | 0.11 |  | 0.103
11 | H168M | 0.0639 | 0.0476 | 0.0667 | 0.0488 | 0.0559 | 0.0612 |  | 0.0648 | 0.0579 | 0.061 | 0.0629 | 0.0147 | 0.0602 | 0.0568 | 0.0644 | 0.0629 | 0.0614
12 | L112S | 0.0597 | 0.0527 | 0.0698 | 0.0639 | 0.136 |  | 0.055 | 0.0794 | 0.0565 |  | 0.0644 |  | 0.0599 |  |  |  | 0.101
13 | S16G | 0.0635 | 0.0571 | 0.0662 | 0.0545 |  |  | 0.0644 | 0.0749 | 0.0482 | 0.0609 | 0.0769 | 0.0753 | 0.0943 | 0.0878 |  | 0.0633 | 0.132
14 | L56Q | 0.0499 | 0.0416 |  | 0.0254 |  | 0.0508 | 0.0193 | 0.0314 | 0.0277 |  | 0.0456 | 0.0482 | 0.0337 |  |  |  | 
15 | W144S | 0.07 | 0.0781 |  | 0.0628 | 0.0682 |  |  | 0.0815 | 0.0635 | 0.0616 | 0.0782 |  | 0.0832 | 0.082 |  |  | 
16 | L56Y | 0.0715 | 0.058 | 0.0646 |  |  |  | 0.0594 |  | 0.0652 | 0.0496 | 0.053 | 0.0524 | 0.0647 | 0.0621 |  |  | 
17 | C152W | 0.0582 | 0.0637 | 0.0573 | 0.0428 |  | 0.0565 | 0.0606 | 0.0609 |  | 0.06 | 0.0571 | 0.0548 | 0.0542 | 0.0634 | 0.0514 |  | 0.0581
18 | G8A | 0.0536 | 0.0622 | 0.0604 |  |  |  | 0.0738 | 0.0699 | 0.0707 |  |  |  |  |  |  |  | 
19 | V64P | 0.0568 | 0.0628 |  |  |  | 0.0742 | 0.0431 | 0.0626 | 0.0623 | 0.0517 | 0.0616 |  | 0.0988 | 0.0735 |  | 0.0683 | 0.136
20 | W144M | 0.107 | 0.113 |  | 0.0606 |  |  | 0.0608 | 0.0758 | 0.0503 | 0.0628 |  | 0.06 |  | 0.0777 | 0.0969 | 0.0694 | 0.078
21 | T176N | 0.0627 | 0.0517 | 0.0886 | 0.0716 |  | 0.0588 |  | 0.0637 |  | 0.0415 | 0.0498 |  | 0.0452 | 0.0712 | 0.0708 |  | 0.0965
22 | G80N | 0.0472 |  |  | 0.0216 | 0.108 | 0.0848 | 0.0658 | 0.0639 | 0.044 | 0.0817 |  |  | 0.113 | 0.0778 | 0.128 |  | 0.107
23 | H168N | 0.0544 | 0.0639 |  | 0.0529 |  |  |  | 0.0307 |  |  |  | 0.0525 |  | 0.0646 | 0.059 | 0.0646 | 
24 | P184G | 0.0478 | 0.0778 | 0.0065 |  |  | 0.0609 | 0.0618 |  | 0.0575 | 0.0792 |  | 0.0525 |  | 0.0686 |  | 0.0711 | 0.101
25 | G28T | 0.0637 | 0.0612 | 0.0748 | 0.0607 | 0.0815 | 0.0664 | 0.0569 | 0.0705 | 0.0581 | 0.0439 | 0.0588 | 0.0593 | 0.0653 | 0.0657 |  |  | 0.124
26 | T192G | 0.0704 | 0.0634 | 0.0514 | 0.0693 |  | 0.0738 | 0.07 | 0.0618 |  |  | 0.0595 | 0.0739 | 0.0769 |  |  |  | 0.0596
27 | M88D | 0.0456 | 0.0429 | 0.0528 | 0.0604 |  |  |  | 0.0443 | 0.0374 | 0.0523 |  |  |  | 0.0319 |  |  | 0.0538
28 | T23P | 0.0396 | 0.0449 |  | 0.0394 | 0.0248 | 0.0376 | 0.0438 | 0.0381 |  |  | 0.0483 | 0.0484 | 0.0419 | 0.0427 | 0.0352 | 0.0513 | 0.0464
29 | C152L | 0.0565 | 0.0712 |  | 0.0601 |  | 0.0411 | 0.0595 | 0.0584 |  | 0.0603 | 0.0627 | 0.101 | 0.0585 | 0.0584 | 0.0391 |  | 0.0589
